# From PubChem BioAssay AID1745853 (National Center for Advancing Translational Sciences (NCATS), 2022)
# The list shows a part of the results. Further columns of the screen follow, without active or inactive calls.
# Legend:
# Experiment in all cases: Primary Screen for Target Class Profiling of Small Molecule Inhibitors of Methyltransferases
# [1] = biological target: Glycine N-methyltransferase (Homo sapiens) (UniProt Q14749); details: purified enzyme, MTase-Glo SAH luminescence; measured here: GNMT inhibition; at 40 µM; stronger effect = lower value
# In short: (§1)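 Each enzyme was assayed with SAM and its substrate. SAH formation detected by MTase-Glo luminescence; single-point 40 uM screen[…].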
# [2] = biological target: Guanidinoacetate N-methyltransferase (Homo sapiens) (UniProt Q14353); details: purified enzyme, MTase-Glo SAH luminescence; measured here: GAMT inhibition; at 40 µM; stronger effect = lower value
# In short: as §1
# [3] = biological target: Histamine N-methyltransferase (Homo sapiens) (UniProt P50135); details: purified enzyme, MTase-Glo SAH luminescence; measured here: HNMT inhibition; at 40 µM; stronger effect = lower value
# In short: as §1
# [4] = biological target: Nicotinamide N-methyltransferase (Homo sapiens) (UniProt P40261); details: purified enzyme, MTase-Glo SAH luminescence; measured here: NNMT inhibition; at 40 µM; stronger effect = lower value
# In short: as §1
# [5] = biological target: Phenylethanolamine N-methyltransferase (Homo sapiens) (UniProt P11086); details: purified enzyme, MTase-Glo SAH luminescence; measured here: PNMT inhibition; at 40 µM; stronger effect = lower value
# In short: as §1
# % is set by controls: 0 for no effect and ±100 for the full control effect.
SMILES,"activity change, negative = inhibition [1]","activity change, negative = inhibition [2]","activity change, negative = inhibition [3]","activity change, negative = inhibition [4]","activity change, negative = inhibition [5]"
CN(C)CC(=O)N1CCn2c3c(c4cc(C5CCCCC5)ccc42)CCCC31 (configuration not stated),-15.1%,0.619%,-20.1%,9.7%,0.753%
Cc1nnc(C(C)C)n1C1CC2CCC(C1)N2CCC(NC(=O)C1CCC(F)(F)CC1)c1ccccc1 (configuration not stated),5.35%,–,14.5%,–,–
CCC(C)/C=C(C)/C=C/C(=O)C1CCC(O)C(C)(O)C1=O (configuration not stated),4.34%,8.34%,5.38%,-7.25%,4.93%
O=C(C1=CCN2c3c(cccc31)OC[C@H]2CN1CCOCC1)c1cccc2ccccc12,-1.31%,-10.9%,5.2%,-31.4%,0.374%
CC(C)C(NC(=O)c1ccc2ccccc2n1)C(=O)NC(CC(=O)O)C(=O)COc1c(F)cccc1F (configuration not stated),3.74%,1.37%,13.1%,-6.14%,6.86%
O=C(c1ccc(F)cc1)N1CCC(N2CCCCCC2=O)CC1,-5.55%,-6.54%,-3.73%,-9.96%,-5.16%
COc1ccc(N2CC3CCC(C2)N3Cc2cccc(Cl)c2)cc1,-3%,0.32%,-7.33%,2%,-0.833%
CCCN1C(=O)c2cc(C(=O)NCc3ccccc3Cl)nn2CC1(C)C(=O)NC1CCCC1 (configuration not stated),0.154%,5.74%,-10.8%,1.48%,-3.25%
C[C@H]1CC[C@H]2[C@@H](C=C[C@@](C)(O)[C@]2(C)C(=O)CCO)C1,1.31%,10%,7.59%,-6.27%,1.55%
CCN1CCN(CCNC(=O)CCn2ccc3cc(S(=O)(=O)N4CCCCC4)ccc32)CC1,2.08%,3.12%,-6.54%,-1.08%,-1.25%
O[C@@H]1CC(CNCc2ccc(F)cc2)(COc2cccnc2)C[C@@H]1O (some centres not stated),-4.37%,-2.92%,-3.05%,-0.98%,18.5%
O=S(=O)(N[C@H]1[C@H](O)[C@H](O)C[C@@H]1c1cncnc1)c1ccc(Cl)cc1,-7.82%,-8.45%,-4.99%,-13.7%,-15.2%
CN(C(=O)C1(N)CC1)C1CCCN(CCCc2ccccc2)C1 (configuration not stated),-6.58%,-8.48%,-3.23%,-10.5%,-11.4%
Fc1ccccc1-c1nc2ccn(Cc3ccc(-c4ccc(C(F)(F)F)cc4C(F)(F)F)nn3)cc-2n1,1.32%,9.37%,9.71%,-20.4%,-0.341%
COc1cccc(CNC(=O)c2cc3n(n2)CC(C)(C(=O)NC2CCCCCC2)N(C)C3=O)c1OC (configuration not stated),2.77%,3.25%,-2.26%,2.37%,-1.35%
C[C@@H]1O[C@@H](OC[C@H]2O[C@@H](OC(CCCCc3ccc(O)cc3)CCc3ccc(O)cc3)[C@H](O)[C@@H](O)[C@@H]2O)[C@H](O)[C@H](O)[C@H]1O (some centres not stated),-0.666%,-8.62%,0.594%,-16.6%,-0.281%
COc1ccc([C@@]2(O)c3c(ccc(CC=C(C)C)c3O)NC(=O)[C@@H]2OC)cc1,0%,1.08%,1.66%,-13.9%,6.42%
O=C(CCc1nnc2n(Cc3ccccc3)c(=O)c3ccccc3n12)Nc1cccc(Cl)c1,-6.66%,-0.541%,-4.75%,-4.49%,-5.62%
COc1ccc(NC(=O)Cn2nc3n(Cc4ccccc4)c(=O)c4ccccc4n3c2=O)cc1,8.08%,1.9%,8.56%,6.2%,6.97%
O=C(Cn1c(=O)oc2cc(S(=O)(=O)N3CCCC3)ccc21)Nc1cccc(Cl)c1,-0.864%,3.36%,4.34%,-0.902%,-41.6%
O=C(CN1CCOCC1)N1CCC(c2cc(N3CCCC3)ncn2)CC1,-5.16%,-2.92%,-2.1%,-4.53%,-4.79%
COc1cc(/C=C/CO[C@@H]2O[C@H](CO)[C@@H](O)[C@H](O)[C@H]2O)cc(OC)c1O[C@@H]1O[C@H](CO)[C@@H](O)[C@H](O)[C@H]1O,-2.04%,-1.72%,2.09%,-11.8%,-10.7%
CCCN1C(=O)c2ccc(-c3ccco3)n2CC1(C)C(=O)NCc1ccc(Cl)cc1 (configuration not stated),-6.15%,0.289%,-0.72%,-3.32%,-4.55%
Cc1nn(-c2ccccc2)c2c1C(C1CC1)N(C1CN(C(=O)Nc3ccccc3)C1)C2=O (configuration not stated),-5.02%,-6.91%,-3.53%,-4.04%,-6.7%
Cc1ncccc1C(=O)N1CCCN(C(=O)C2CC2)C(c2ccccc2)CC(=O)NCC1 (configuration not stated),-3.59%,-7.04%,-2.91%,-4.34%,-10.1%
CCOc1ccccc1CN1C(=O)c2nc3ccccc3n2CC1(C)C(=O)NC1CCCCCC1 (configuration not stated),-0.983%,4.38%,2.68%,-5.92%,-3.36%
CCc1ccc(N2C(=O)c3cc4sccc4n3CC2(C)C(=O)NC2CCCCC2)cc1 (configuration not stated),-6.61%,-0.331%,-1.67%,3.97%,-4.5%
CN(C)c1ccc(CN2C(=O)c3cc4ccccc4n3CC2(C)C(=O)NCc2ccccc2)cc1 (configuration not stated),1.49%,7.46%,3.62%,-3.06%,-0.866%
O=C(C1CC1)N1C[C@@H]2OCC(=O)N(CC3CC3)[C@@H]2C1,-1.64%,-0.971%,1.89%,-2.34%,1.56%
